At least one read-out could not be matched to a standard name with certainty.
What was measured:
[1] = test system: learning of the avoidance reflex; assay: Multiple-trial passive avoidance: learning; format: in vivo, male Sprague-Dawley rats; details: rats, i.p. 30 minutes before test, criterion 180 seconds on mat; dose (mg/kg) / group 1 saline control trials: 1: 5.35/2.27; 7: 29.54/2.67; 9: 8.72/2.27; 10: 28.14/2.87; 20: 2.66/1.93; 21a: 2.65/1.60; 22: 3.64/2.20; 25a: 0.89/2.07; 27: 3.78/2.20; 37: 9.6/2.0; 41: 9.12/2.53; physostigmine: 0.4/2.60
[2] = test system: amnesia induced by scopolamine; assay: Multiple-trial passive avoidance: mnemic retention, amnesia induced by scopolamine; format: in vivo, male Sprague-Dawley rats; details: rats, i.p. with 0.5 mg scopolamine; for Mnemic retention, period of remaining on the mat, group 4, 4 hours: dose (mg/kg) / group 3 (scopolamine only): 1: 5.35/13.3, 7: 29.54/1.5, 9: 8.72/2.3, 20: 2.66/2.5, 21a: 2.65/9.7, 22: 3.64/11.1, 25a: 0.89/3.0, 27: 3.78/8.9, 37: 9.6/2.5, 41: 9.12/3.7, physostigmine: 0.4/1.4; for Mnemic retention, period of remaining on the mat, group 4, 4 hours / Mnemic retention, period of remaining on the mat, group 4, 28 hours: 10: 28.14/4.5; for Mnemic retention, period of remaining on the mat, group 4, 24 hours: dose (mg/kg) / group 3 (scopolamine only): 1: 5.35/24.2, 7: 29.54/3.3, 9: 8.72/3.3, 10: 28.14/2.3, 20: 2.66/4.6, 21a: 2.65/9.1, 22: 3.64/20.3, 25a: 0.89/7.7, 27: 3.78/31.6, 37: 9.6/4.5, 41: 9.12/7.0, physostigmine: 0.4/6.9; for Mnemic retention, period of remaining on the mat, group 4, 28 hours: dose (mg/kg) / group 3 (scopolamine only): 1: 5.35/26.3, 7: 29.54/4.0, 9: 8.72/5.7, 20: 2.66/5.5, 21a: 2.65/33.9, 22: 3.64/12.8, 25a: 0.89/3.3, 27: 3.78/54.1, 37: 9.6/5.8, 41: 9.12/7.7, physostigmine: 0.4/21.3
Experimental: 4. Multiple-trial passive avoidance. The compounds of the present invention have been studied with the aim of
Columns 3 and 4 show the results obtained in the test used to evaluate the learning. The figures indicate the average number of trials needed for a control animal (group 1) or an animal treated (group 2) with the compound to learn to remain on the rubber mat for 180 seconds in order to avoid the electric shock. The results were analyzed by the Student test.

Structure (SMILES) | Learning, average number of trials, group 2 (treated) [1] [trials] | Mnemic retention, period of remaining on the mat, group 4, 4 hours [2] [s] | Mnemic retention, period of remaining on the mat, group 4, 24 hours [2] [s] | Mnemic retention, period of remaining on the mat, group 4, 28 hours [2] [s]
CCCc1nc(NCCO)nc(N2CCOCC2)n1 [Compound 1, 2-[(4-morpholino-6-propyl-1,3,5-triazin-2-yl)amino]-ethanol] | 1.53 | 44.8 | 61.3 | 102.7
CCCc1nc(NC(CC)CO)nc(N2CCOCC2)n1 (centres unmarked) [Compound 7] | 2.57 | 7.3 | 22.5 | 52.1
CCCc1nc(N(C)CCO)nc(N2CCOCC2)n1 [Compound 9] | 2.0 | 67.9 | 62.7 | 160.3
CCCc1nc(NCCOC)nc(N2CCOCC2)n1 [Compound 10, 2-[(2-methoxyethyl)amino]-4-morpholino-6-propyl-1,3,5-triazine] | 2.07 | 15.7 | 31.1 | 34.1
CCCc1nc(NN(C)C)nc(N2CCOCC2)n1 [Compound 20, 2-(2,2-dimethylhydrazino)-4-morpholino-6-propyl-1,3,5-triazine] | 1.53 | 55.3 | 57.7 | 87.9
CCCc1nc(NC(C)=O)nc(N2CCOCC2)n1 [Compound 21a, N-(4-Morpholino-6-propyl-1,3,5-triazin-2-yl)-acetamide] | 1.53 | 60.4 | 74.6 | 102.4
CCCc1nc(NC(=O)c2ccccc2)nc(N2CCOCC2)n1.Cl [Compound 22, N-(4-morpholino-6-propyl-1,3,5-triazin-2-yl)-benzamide hydrochloride] | 1.0 | 70.9 | 82.8 | 137.6
CCCc1nc(N2CCOCC2)nc(N(C)C(C)=O)n1 [Compound 25a] | 2.07 | 8.1 | 34.7 | 44.5
CCCc1nc(N2CCOCC2)nc(N(C)C(=O)c2ccccc2)n1.Cl [Compound 27, N-methyl-N-(4-morpholino-6-propyl-1,3,5-triazin-2-yl)-benzamide hydrochloride] | 1.13 | 88.6 | 111.5 | 133.5
CCCc1nc(NCCOC(C)=O)nc(N2CCOCC2)n1 [Compound 37, 2-[[2-(acetoxy)ethyl]amino]-4-morpholino-6-propyl-1,3,5-triazine] | 1.3 | 24.0 | 44.4 | 49.9
CCCc1nc(NC(=O)N(C)C)nc(N2CCOCC2)n1 [Compound 41, N,N-Dimethyl-N'-(4-morpholino-6-propyl-1,3.5-triazin-2-yl)-urea] | 1.33 | 15.8 | 27.3 | 66.3

Source: patent US4956367A, “2-amino-4-morpholino-6-propyl-1,3,5-triazines” (U C B S.A., priority 1988, dated 1990)
